Results are given in words; binding and its absence hold for the method and conditions named. In cells and extracts the contact can be indirect. Some entries that bind do so weakly or less than the wild type.
Assays:
[1] = target: NS1-Myc-His (nonstructural protein 1 of influenza A/PR/8, full length) (influenza A/PR/8 (PR8) strain) (UniProt P03496); assay: co-IP
[2] = target: NS1-RBD-Myc-His (amino acids 1-73) (influenza A/PR/8 (PR8) strain) (UniProt P03496); assay: co-IP

The chains behind the UniProt entries cited, without tags or fusion partners. Where a name states a change or a piece, a line headed by the entry shows the natural chain unless it says otherwise. Residues count along the entry.
UniProt P03496: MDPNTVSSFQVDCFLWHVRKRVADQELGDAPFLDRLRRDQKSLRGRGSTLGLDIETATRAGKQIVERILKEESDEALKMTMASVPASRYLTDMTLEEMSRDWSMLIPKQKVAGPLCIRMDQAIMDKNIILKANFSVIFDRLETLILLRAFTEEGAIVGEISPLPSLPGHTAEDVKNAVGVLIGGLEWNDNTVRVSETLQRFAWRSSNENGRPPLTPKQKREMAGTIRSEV
NS1-RBD-Myc-His (amino acids 1-73) (influenza A/PR/8 (PR8) strain): residues 1-73 of P03496
UniProt Q13114: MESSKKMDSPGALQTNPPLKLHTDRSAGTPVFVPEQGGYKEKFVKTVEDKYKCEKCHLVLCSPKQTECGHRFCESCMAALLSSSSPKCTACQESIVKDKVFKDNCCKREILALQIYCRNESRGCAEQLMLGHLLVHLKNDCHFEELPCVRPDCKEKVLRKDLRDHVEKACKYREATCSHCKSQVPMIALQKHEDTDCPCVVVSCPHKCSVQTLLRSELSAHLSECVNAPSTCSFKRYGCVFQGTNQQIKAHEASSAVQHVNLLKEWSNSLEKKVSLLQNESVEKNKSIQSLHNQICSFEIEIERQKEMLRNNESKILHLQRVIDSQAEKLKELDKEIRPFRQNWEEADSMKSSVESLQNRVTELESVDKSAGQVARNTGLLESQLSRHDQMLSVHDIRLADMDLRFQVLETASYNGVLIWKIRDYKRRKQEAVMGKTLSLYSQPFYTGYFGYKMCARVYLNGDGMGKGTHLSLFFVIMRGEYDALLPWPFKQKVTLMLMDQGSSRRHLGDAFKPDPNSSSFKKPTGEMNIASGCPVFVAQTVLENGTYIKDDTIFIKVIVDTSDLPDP
UniProt Q7Z434: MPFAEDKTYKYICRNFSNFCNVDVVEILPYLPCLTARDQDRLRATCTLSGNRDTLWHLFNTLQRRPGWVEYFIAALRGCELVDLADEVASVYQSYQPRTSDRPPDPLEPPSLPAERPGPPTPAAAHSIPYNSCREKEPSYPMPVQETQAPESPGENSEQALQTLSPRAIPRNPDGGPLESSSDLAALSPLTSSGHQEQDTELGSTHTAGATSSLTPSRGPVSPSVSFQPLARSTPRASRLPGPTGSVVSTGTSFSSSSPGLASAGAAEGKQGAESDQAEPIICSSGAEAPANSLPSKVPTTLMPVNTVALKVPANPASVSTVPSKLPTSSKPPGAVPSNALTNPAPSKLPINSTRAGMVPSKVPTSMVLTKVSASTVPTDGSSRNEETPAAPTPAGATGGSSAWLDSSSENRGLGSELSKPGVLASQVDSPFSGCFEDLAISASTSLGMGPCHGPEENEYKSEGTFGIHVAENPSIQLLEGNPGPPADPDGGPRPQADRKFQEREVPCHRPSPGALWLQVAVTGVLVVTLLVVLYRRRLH

Substance: Flag-TRAF3Δ1-258 (from UniProt Q13114 259-568) (domain or fragment)
- binding [1]: binds

Substance: Flag-TRAF3Δ1-399 (from UniProt Q13114 400-568) (domain or fragment)
- binding [1]: binds

Substance: Flag-TRAF3Δ274-568 (from UniProt Q13114 1-273) (domain or fragment)
- binding [1]: no binding

Substance: His-MAVS (from UniProt Q7Z434 1-540)
- binding [1]: binds
- binding [2]: binds
